Test system: C57/BL6 mice challenged with LPS (E.coli, 3 mg/kg, i.t.)
Assay: LPS-induced pneumonia (lung injury) model
Settings: 1 mg/kg i.p. 10 min after LPS i.t. 3 mg/kg
Description: To assess any in vivo anti-inflammatory activity, four compounds [C2, C6, C7 and C9, 1 mg/kg, intraperitoneal (i.p.) injection] were administered in a LPS-induced pneumonia model. Briefly, compounds were administered to mice at various doses through an i.p. injection 10 min after mice were given LPS (i.t. 3 mg/kg). Mice were then euthanized 16 h later using pentobarbital; BAL was collected and assayed for IL1, IL6 and TNF cytokine levels. These compounds varied in their ability to ameliorate lavage cytokines, protein concentration, and total cell counts from LPS-treated mice (Fig. 5A–E).
Figure 5 PDE4 inhibitors ameliorate LPS induced lung injury. C57/BL6 mice were challenged with LPS (E.coli, 3 mg/kg, i.t.) followed by i.p. administration of vehicle, 1 mg/kg of compound 2, 6, 7 or 9. Mice were then euthanized 18 h later using pentobarbital, and lungs were lavaged with saline, harvested, and then homogenized. Lavage cytokine secretion (A–C), protein concentrations (D) and cell counts (E) were measured. F. H&E staining was performed on lung samples. Original magnification, ×20. The data represent n = 4–6 mice/group, *P<0.05 versus vehicle.
Male C57LB/6 mice (purchased from Jackson Laboratories) were acclimated at the University of Pittsburgh Animal Care Facility and maintained according to all federal and institutional animal care guidelines and under a University of Pittsburgh Institutional Animal Care and Use Committee (IACUC)-approved protocol (14023127). Male C57LB/6 Mice were deeply anesthetized with ketamine (80 to 100 mg/kg of body weight, intraperitoneally [i.p.]) and xylazine (10 mg/kg, i.p.), and then the larynx was well visualized under a fiber optic light source before endotracheal intubation with a 3/400 24-gauge plastic catheter. Compounds were diluted in PBS and administered to mice at 1 mg/kg through an i.p. injection 10 min after mice were given with LPS (i.t. 3 mg/kg). Mice were then euthanized 18 h later; Lavage fluids were collected from mice to measure protein and cytokine concentration. Lungs were isolated from mice for H&E staining.

| SMILES | histological evidence of lung injury (H&E) |
| --- | --- |
| COc1ccc(C2OCC3(O)C(c4ccc(OC)c(OC)c4)OCC23)cc1OC (stereo not drawn) [Compound 6] | diminished histological evidence of lung injury |
| COc1ccc([C@@H]2OC[C@H]3[C@@H]2CO[C@@H]3c2ccc(O[C@@H]3O[C@H](CO)[C@@H](O)[C@H](O)[C@H]3O)c(OC)c2)cc1OC [Compound 7, Forsythin] | diminished histological evidence of lung injury |
| COc1cccc(CN2N=NC3C(=O)N(c4ccc(OC)c(OC)c4)C(=O)C32)c1 (stereo not drawn) [Compound 9] | diminished histological evidence of lung injury |
